We go through 92 compounds from PubChem BioAssay AID463173 (ICCB-Longwood Screening Facility, Harvard Medical School, 2010).

Out of some 52,000 compounds screened, about 4,300 (8.3%) were called active. Rule as the data show it: active = survival mostly below about 52% (no sharp cut-off); inactive = mostly above about 56%. The list shows a part of the results.

The test system of this experiment is DeltatarO mutant. Nature of the experiment: S. aureus survival, RN4220 and DeltatarO strains – OD600, teichoic acid synthesis inhibitors, primary screen (AID 463173). Conditions: S. aureus RN4220 wild type/DeltatarO growth, OD600, 18 h, active compounds read low, screened at 18.75 µg/mL (by protocol).
In the case of `Fc1ccc(-c2ccc(CNCCSc3nnnn3-c3ccccc3)o2)cc1Cl`, the survival was active: 39%.

With `O=C(Nc1c(C(=O)Nc2cccc(F)c2)oc2ccccc12)c1cc2ccccc2o1`, the survival is active: 35%.

In the case of `CCNC(=O)c1ccc2nc(Cc3ccccc3)oc2c1`, the survival is inactive: 101%.

As for `COc1cc2[nH]c(=O)n(CCCCCC(=O)NCCc3ccccc3)c(=O)c2cc1OC`, the survival was inactive: 76%.

For the compound `CCOc1ccc(/C=C/c2nc(C#N)c(Nc3ccc(OC)cc3)o2)cc1`, the survival was inactive: 72%.

As for `COc1ccc(OC)c(NC(=O)CCn2cnc3ccccc3c2=O)c1`, the survival is inactive: 96%.

In the case of `CCCOc1ccc(CN(C(=O)c2nc(SC(C)C)ncc2Cl)C2CCS(=O)(=O)C2)cc1` (configuration not stated), the survival is inactive: 70%.

On to `CSc1ccc(CCNC(=O)CCc2c(C)nc3cc(-c4ccccc4)nn3c2C)cc1`, for which the survival was inactive: 93%.

On to `CC(OC(=O)c1cc2sccc2n1C)C(=O)NC1CCCC1` (configuration not stated), for which the survival was inactive: 98%.

In the case of `CCc1ccc(-c2nc(-c3cc4ccccc4oc3=O)sc2C)cc1`, the survival is inactive: 144%.

As for `COc1cc(NC(=O)c2cnc3c(-c4ccc(F)cc4)c(C)nn3c2C)cc(OC)c1`, the survival was inactive: 122%.

In the case of `Cc1ccc(-c2nc3ccc(Cl)cn3c2Nc2ccc3c(c2)OCCO3)s1`, the survival was inactive: 107%.

As for `COc1ccc(CNC(=O)CN2C(=O)CCCc3ccccc32)cc1`, the survival was inactive: 89%.

Take `COc1ccc(NC(=O)CC(C)n2nc(C)cc2C)cc1Cl` (configuration not stated): the survival is inactive: 78%.

In the case of `COc1ccc(CCNC(=O)CCc2c(C)c3cc4c(C)c(C)oc4cc3oc2=O)cc1`, the survival is inactive: 96%.

For the compound `CCn1c(C(=O)Nc2cc(Cl)ccc2C)cc2sc(Cl)cc21`, the survival is inactive: 77%.

On to `CCOc1ccc(CCNC(=O)Cn2ncn3c(cc4ccccc43)c2=O)cc1OCC`, for which the survival was inactive: 85%.

For `CCOC(=O)c1c(NC(=O)COc2cccc(C(F)(F)F)c2)sc2c1CCCCC2`, the survival is active: 60%.

As for `CC(C)COc1ccc(C(=O)N2CCN(CCc3ccccn3)CC2)cc1`, the survival is inactive: 63%.

`COc1cccc(C2c3c(-c4ccccc4O)n[nH]c3C(=O)N2CCc2ccc(OC)c(OC)c2)c1` (configuration not stated): the survival was active: 8%.

For `O=C(CSc1ncc(CO)n1Cc1ccccc1)Nc1ccc(C(F)(F)F)cc1`, the survival is inactive: 108%.

Take `O=C(Nc1nnc(S(=O)(=O)N2CCc3ccccc32)s1)c1ccccc1`: the survival was active: 12%.

Regarding `CC(=O)Nc1ccccc1C#N`, the survival is inactive: 75%.

Consider `O=C1Nc2ccccc2C1Cc1ccc(Br)cc1` (configuration not stated), for which the survival was inactive: 68%.

As to `Cc1ccc(NC(=O)CN2C(=O)c3ccccc3Sc3ccc(C(=O)N4CCOCC4)cc32)cc1C`, the survival is inactive: 88%.

`CC1CCc2noc(NC(=O)c3ccc([N+](=O)[O-])cc3)c2C1` (configuration not stated): the survival was inactive: 93%.

In the case of `CCC(=O)N1CCc2cc(S(=O)(=O)NCCC(=O)Nc3ccc(C)cc3C)ccc21`, the survival was inactive: 81%.

For `Cc1ccc(NC(=O)CSc2nc3nccnc3c(=O)n2CCc2c[nH]c3ccccc23)cc1C`, the survival is active: 37%.

Regarding `O=C(Nc1nnc(C(F)(F)F)s1)c1ccccc1`, the survival was active: 24%.

With `CCN(CC(O)COc1ccc(OCC(O)CN(CC)C2CCCCC2)cc1)C1CCCCC1` (configuration not stated), the survival was inactive: 88%.

For `Cc1ccccc1OCCSc1nc2ccc(NC(=O)c3ccco3)cc2s1`, the survival is active: 25%.

On to `Cc1ccnc(SCC(=O)Nc2ccccc2)n1`, for which the survival is inactive: 95%.

As to `COC(=O)c1ccccc1NC(=O)Cn1c(=O)n(-c2ccc(C)cc2)c(=O)c2ccccc21`, the survival was inactive: 83%.

As to `COc1cc(Nc2nc3c(S(=O)(=O)c4cccc(Cl)c4)nnn3c3ccsc23)cc(OC)c1`, the survival was inactive: 112%.

Take `CCOc1ccc(NC(=O)Cn2nc(CC)n3c(cc4sccc43)c2=O)cc1`: the survival is inactive: 92%.

Take `Cc1ccc2c(c1)c1c(c(=O)n(-c3cccc(Cl)c3)c(=O)n1CC(N)=O)n2C`: the survival is inactive: 74%.

For `COc1ccc(CNCC(O)c2nnn(C)n2)cc1OC` (configuration not stated), the survival is inactive: 91%.

Regarding `Cc1ccc(C2N3CC4(C)CN2CC(c2ccccc2)(C3)C4=O)cc1` (configuration not stated), the survival is inactive: 93%.

For the compound `CCn1cc(/C=C(\NC(=O)c2ccccc2Cl)C(=O)NCCCn2ccnc2)c2ccccc21`, the survival was inactive: 125%.

With `CCOc1ccc(C(=O)Nc2ccc(C(=O)OCc3cc(=O)n4c(C)csc4n3)cc2)cc1`, the survival was inactive: 88%.

Regarding `Cc1ccc(CNC(=O)c2ccc(N3Cc4ccccc4Oc4ncccc43)s2)cc1`, the survival is inactive: 81%.

With `CCOCCCNC(=O)C(c1ccc(Cl)cc1)N(Cc1ccc2c(c1)OCO2)C(=O)c1ccc(NC(C)=O)cc1` (configuration not stated), the survival is inactive: 142%.

As to `CCC(=O)Nc1ccc(-c2nc3ncccc3o2)cc1C`, the survival is inactive: 73%.

Take `Oc1c(C(c2ccc(Cl)cc2Cl)N2CCN(Cc3ccccc3)CC2)sc2nc(-c3ccco3)nn12` (configuration not stated): the survival is inactive: 99%.

Turning to `Cc1ccccc1-n1nc(C)c2c1CC(C)(C)CC2=O`, the survival is inactive: 81%.

As to `CCOc1ccc2nc(Cl)c(CN(Cc3ccco3)C(=O)c3ccco3)cc2c1`, the survival is inactive: 108%.

In the case of `Cc1ccc(CNC(=O)Cn2ccn(-c3ccc(F)c(F)c3)c(=O)c2=O)cc1`, the survival was inactive: 82%.

As to `CCCn1c(=N)c(C(=O)NCc2ccco2)cc2c(=O)n3cc(C)ccc3nc21`, the survival was inactive: 54%.

Take `CCC(Sc1nc2ccncc2[nH]1)C(=O)Nc1cc(C)ccc1C` (configuration not stated): the survival is inactive: 132%.

Consider `OC(c1ccccc1)c1nc2ccccc2n1Cc1c(F)cccc1Cl` (configuration not stated), for which the survival was inactive: 74%.

On to `CC1(C)CC(N=Cc2c(O)[nH]c(=O)[nH]c2=O)CC(C)(C)N1`, for which the survival was inactive: 85%.

On to `Cc1oc2ncnc(N3CCOCC3)c2c1C(=O)Nc1ccc(Br)cc1F`, for which the survival is inactive: 135%.

Regarding `CCOc1ccc(-c2cc3c(=O)n(CC(=O)NCc4ccccc4)ccn3n2)cc1`, the survival was inactive: 83%.

In the case of `Fc1ccc(-n2nc(-c3ccccc3)c3cnc4ccccc4c32)cc1Cl`, the survival was inactive: 129%.

As to `Cc1ccc(Cl)cc1NC(=O)c1cc(S(=O)(=O)N2CCOCC2)cn1C`, the survival was inactive: 79%.

As for `COc1ccccc1CNc1ncnc2c1nc1n2CCCC1`, the survival was inactive: 80%.

On to `O=C(O)c1ccc2c(c1)N(Cc1ccc(F)cc1)C(=O)c1ccccc1S2=O` (configuration not stated), for which the survival is inactive: 89%.

As to `Cc1cc(NC(=O)c2cc(-c3ccc(F)cc3)on2)nn1Cc1ccc(Cl)cc1`, the survival was inactive: 57%.

Take `COc1ccccc1CNS(=O)(=O)c1c(C)nc2sc(C)cn2c1=O`: the survival is inactive: 70%.

Take `O=C(NCCc1ccccc1)c1ccc2c(c1)CCN2S(=O)(=O)c1ccc(Cl)cc1`: the survival is inactive: 105%.

With `Cc1ccc2c(CC(=O)Nc3ccc(S(=O)(=O)N4CCCC(C)C4)cc3)coc2c1` (configuration not stated), the survival is inactive: 67%.

Regarding `CCCCN(C)C(=O)C1CCC(Cn2c(=O)[nH]c3ccsc3c2=O)CC1` (configuration not stated), the survival was active: 0%.

On to `O=C(Cn1c(=O)c2cccn2c2ccc(F)cc21)Nc1cccc(F)c1`, for which the survival is inactive: 64%.

On to `COC(=O)c1cc(NC(=O)Cn2ncc3c([nH]c4ccccc43)c2=O)cc(C(=O)OC)c1`, for which the survival is inactive: 66%.

Regarding `Cc1ccccc1OCC(=O)Nc1ccccc1C(=O)OCc1cc(=O)n2nc(C3CC3)sc2n1`, the survival is inactive: 92%.

With `Cc1cccc(NC(=O)c2oc3ccccc3c2NC(=O)Cc2coc3cc(C)cc(C)c23)c1`, the survival is inactive: 87%.

As to `Cc1cccc(-c2nc3cc(NC(=O)COc4ccccc4F)ccc3o2)c1`, the survival is inactive: 103%.

For the compound `Cc1ccc(C(=O)c2cn(Cc3ccccc3)c3ccccc3c2=O)cc1`, the survival was inactive: 75%.

For the compound `O=C(CN1CCC(NC(=O)Nc2ccccc2-c2ccccc2)CC1)NCc1ccco1`, the survival was inactive: 78%.

In the case of `Cc1cc(N2CCN(c3ccc(F)cc3)CC2)n2cnnc2n1`, the survival is inactive: 79%.

In the case of `COc1ccc(NC(=O)Cn2ccn(-c3ccc(C)c(C)c3)c(=O)c2=O)cc1Cl`, the survival was inactive: 72%.

As to `Cc1ccc(Oc2ccc(C#N)c(C#N)c2)c(-n2nc3ccccc3n2)c1`, the survival is inactive: 102%.

For `Cc1ccc(-c2c3c(=O)n(C)c(=O)n(C)c3c3c(C)nc4ccccc4n23)cc1`, the survival was inactive: 81%.

With `Cn1cnnc1SCC(=O)c1ccccc1`, the survival was inactive: 71%.

With `COc1ccc(Cl)cc1NC(=O)CSc1nc(=O)[nH]c2c1CCC2`, the survival was inactive: 94%.

Consider `CN(C)Cc1ccc(C(=O)O)o1`, for which the survival is inactive: 70%.

Turning to `O=C(CSc1nc(=O)n(Cc2ccccn2)c2c1CCC2)Nc1cccc(Cl)c1`, the survival was inactive: 94%.

Take `COCCNC(=O)CSc1nc(-c2ccc(C)cc2)[nH]c1-c1ccc(OC)cc1`: the survival is inactive: 84%.

`CC(C)CCNC(=O)C1CCC(CNS(=O)(=O)c2cccc3nsnc23)CC1` (configuration not stated): the survival is inactive: 127%.

On to `CCc1ccc(NC(=O)CN2C(C(=O)OC)=C(c3ccccc3)c3ccccc3S2(=O)=O)cc1`, for which the survival was inactive: 55%.

On to `O=C(O)c1ccccc1SC1CC(=O)N(c2ccc(N3CCCCC3)cc2)C1=O` (configuration not stated), for which the survival is inactive: 90%.

Take `CCN(CC)S(=O)(=O)c1nnc(NC(=O)c2ccc(C)cc2)s1`: the survival was inactive: 63%.

As for `C=CCN1C(=O)C2C(C(=O)NC)C3C=CC2(O3)C1C(=O)NC1CCCCC1` (configuration not stated), the survival is inactive: 105%.

`O=C(CN(C(=O)c1ccc(Cl)nc1)c1ccc2c(c1)OCCO2)NCc1ccco1`: the survival is inactive: 90%.

Take `CC1CN(C(=O)N2CCC(C(=O)NCc3ccco3)CC2)c2ccccc2O1` (configuration not stated): the survival is inactive: 73%.

Take `CC1CCN(c2nc3ccccc3nc2C(F)(F)F)CC1`: the survival was inactive: 75%.

For `CCOc1cccc(C2c3c(oc4ccc(F)cc4c3=O)C(=O)N2c2cc(C)ccn2)c1` (configuration not stated), the survival is inactive: 136%.

For `Cc1cccc(CN2C(=O)c3ccccc3Sc3ccc(C(=O)NCCCN4CCOCC4)cc32)c1`, the survival is active: 37%.

Take `O=C(Nc1nc2ccccc2n1CCOc1ccccc1Cl)c1ccccc1`: the survival was active: 17%.

Turning to `Cc1ccc(Cl)cc1N1CCN(C(=O)CCc2nnc3n(C)c(=O)c4ccccc4n23)CC1`, the survival is inactive: 63%.

In the case of `Cc1ccc(NC(=O)CSc2nc3n[nH]c(C)c3c(=N)n2-c2ccccc2C)cc1C`, the survival was inactive: 77%.

As for `CCN(Cc1ccccc1)C(=O)c1cn(-c2cccc(OC)c2)c(=O)c2ccccc12`, the survival is inactive: 68%.
